The target in test [1] is GST-PAPα (UniProt P51003). Put plainly: pull-down; GST-Star-PAP or GST-PAPα immobilised on glutathione-sepharose beads, pull-down from HEK 293 cell lysates; buffers with protease inhibitor cocktail, DNase I and RNase A; immunoblot; no competitor added; only the target purified. A general note: A western blot detects proteins with antibodies after separation by electrophoresis.

By UniProt entry, the sequences of proteins in these tests, tags left out.
UniProt P51003: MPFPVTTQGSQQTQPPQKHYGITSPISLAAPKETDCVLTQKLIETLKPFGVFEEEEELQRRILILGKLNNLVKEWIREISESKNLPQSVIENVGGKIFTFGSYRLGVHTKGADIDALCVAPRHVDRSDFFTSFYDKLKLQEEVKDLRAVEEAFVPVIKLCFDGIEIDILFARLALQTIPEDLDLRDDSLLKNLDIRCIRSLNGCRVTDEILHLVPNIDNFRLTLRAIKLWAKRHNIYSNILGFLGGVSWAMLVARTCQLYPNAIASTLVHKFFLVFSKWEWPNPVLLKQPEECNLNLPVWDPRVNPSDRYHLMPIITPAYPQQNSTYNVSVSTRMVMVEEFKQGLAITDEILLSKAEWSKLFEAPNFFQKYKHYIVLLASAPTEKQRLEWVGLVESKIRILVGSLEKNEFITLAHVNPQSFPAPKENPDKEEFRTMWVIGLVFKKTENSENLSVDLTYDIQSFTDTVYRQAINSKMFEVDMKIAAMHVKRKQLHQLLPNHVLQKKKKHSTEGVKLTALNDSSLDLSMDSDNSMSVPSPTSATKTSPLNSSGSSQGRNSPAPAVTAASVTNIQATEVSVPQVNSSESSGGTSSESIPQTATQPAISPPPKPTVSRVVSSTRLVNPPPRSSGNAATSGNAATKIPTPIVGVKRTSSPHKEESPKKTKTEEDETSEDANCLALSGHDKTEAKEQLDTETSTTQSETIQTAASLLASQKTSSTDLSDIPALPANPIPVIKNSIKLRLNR
UniProt Q99755: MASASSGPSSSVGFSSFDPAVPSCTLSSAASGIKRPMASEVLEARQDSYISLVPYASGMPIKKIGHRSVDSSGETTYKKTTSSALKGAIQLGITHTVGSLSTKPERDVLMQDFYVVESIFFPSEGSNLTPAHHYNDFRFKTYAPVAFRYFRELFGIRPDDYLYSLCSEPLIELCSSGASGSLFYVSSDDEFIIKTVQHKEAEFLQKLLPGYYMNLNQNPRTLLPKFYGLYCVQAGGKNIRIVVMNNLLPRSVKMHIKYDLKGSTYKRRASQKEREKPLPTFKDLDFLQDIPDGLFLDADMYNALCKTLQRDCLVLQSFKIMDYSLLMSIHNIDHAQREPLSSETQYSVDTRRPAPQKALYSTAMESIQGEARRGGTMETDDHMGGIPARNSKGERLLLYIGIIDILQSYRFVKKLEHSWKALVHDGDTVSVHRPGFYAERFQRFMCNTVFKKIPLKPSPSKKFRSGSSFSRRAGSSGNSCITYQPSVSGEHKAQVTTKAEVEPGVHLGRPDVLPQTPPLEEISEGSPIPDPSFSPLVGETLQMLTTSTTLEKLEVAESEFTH
UniProt O95639: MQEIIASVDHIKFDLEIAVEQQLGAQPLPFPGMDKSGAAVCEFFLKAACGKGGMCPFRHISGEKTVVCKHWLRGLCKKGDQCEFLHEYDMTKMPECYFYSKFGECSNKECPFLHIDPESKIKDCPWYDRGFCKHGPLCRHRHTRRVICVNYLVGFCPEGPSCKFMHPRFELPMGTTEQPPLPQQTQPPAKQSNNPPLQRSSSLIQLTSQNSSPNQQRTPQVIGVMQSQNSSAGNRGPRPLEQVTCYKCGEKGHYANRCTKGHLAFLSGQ

Test [2] has as its target T1, GST-Star-PAP (Speckle targeted PIPKIα regulated poly (A) polymerase) (UniProt Q9H6E5).
T1 sequence: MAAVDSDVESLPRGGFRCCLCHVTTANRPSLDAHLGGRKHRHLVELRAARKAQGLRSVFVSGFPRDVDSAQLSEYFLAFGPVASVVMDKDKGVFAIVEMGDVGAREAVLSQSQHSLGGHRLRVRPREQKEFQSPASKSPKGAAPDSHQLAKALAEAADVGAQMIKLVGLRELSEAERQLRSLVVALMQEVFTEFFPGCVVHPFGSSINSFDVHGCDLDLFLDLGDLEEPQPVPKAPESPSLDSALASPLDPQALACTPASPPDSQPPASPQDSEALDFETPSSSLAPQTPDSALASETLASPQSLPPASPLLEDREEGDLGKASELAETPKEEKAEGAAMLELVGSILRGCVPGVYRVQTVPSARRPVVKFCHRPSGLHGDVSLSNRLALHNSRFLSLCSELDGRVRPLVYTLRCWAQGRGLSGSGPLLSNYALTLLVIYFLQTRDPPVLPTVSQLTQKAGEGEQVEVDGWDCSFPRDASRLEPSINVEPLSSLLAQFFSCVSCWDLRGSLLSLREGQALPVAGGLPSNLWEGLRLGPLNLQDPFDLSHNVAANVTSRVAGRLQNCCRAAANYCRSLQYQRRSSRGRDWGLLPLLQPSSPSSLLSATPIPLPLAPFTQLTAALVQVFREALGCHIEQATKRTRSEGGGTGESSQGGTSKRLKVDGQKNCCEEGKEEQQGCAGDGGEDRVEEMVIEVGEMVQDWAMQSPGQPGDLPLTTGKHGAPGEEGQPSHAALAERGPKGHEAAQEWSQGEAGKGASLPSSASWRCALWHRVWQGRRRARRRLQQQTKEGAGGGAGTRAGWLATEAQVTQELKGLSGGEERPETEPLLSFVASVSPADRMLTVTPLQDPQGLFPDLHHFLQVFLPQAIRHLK
The description is as above.

For test [3], the target named is GST-PAPα (UniProt P51003). Put plainly: pull-down; GST-Star-PAP, GST-PAPα or control GST on glutathione-sepharose beads, pull-down from HEK 293 cell lysates with increasing additions (0, 12.5, 25, 50, 100, 200 nM) of recombinant His-PAPα or His-Star-PAP as competitor; DNase I and RNase A; immunoblot; only the target purified.
In test [4] the target is T1, GST-Star-PAP (Speckle targeted PIPKIα regulated poly (A) polymerase). Described as above.

These are yes or no findings as the source states them, for the method shown. In cells and extracts the contact can be indirect. Some results given as binding are weak or reduced against the parent protein; the word gives no strength. For some of these results: Sequences can lack the tags named with a protein.

Consider “phosphatidyl-inositol-4-phosphate-5-kinase type Iα (PIPKIα) (from UniProt Q99755 1-562) (enzyme)”, for which the binding entry is “no binding” with GST-PAPα [1] and “binds” in test [2].

Turning to “CPSF-30 (cleavage and polyadenylation specificity factor 30 kilodalton subunit) (from UniProt O95639 1-269)”, the binding entry (in the test with GST-PAPα [1]; in test [2]) was “binds” each time.

B1: CPSF-73 (cleavage and polyadenylation specificity factor 73 kilodalton subunit) (protein, UniProt Q9UKF6 1-684)
chain: MSAIPAEESDQLLIRPLGAGQEVGRSCIILEFKGRKIMLDCGIHPGLEGMDALPYIDLIDPAEIDLLLISHFHLDHCGALPWFLQKTSFKGRTFMTHATKAIYRWLLSDYVKVSNISADDMLYTETDLEESMDKIETINFHEVKEVAGIKFWCYHAGHVLGAAMFMIEIAGVKLLYTGDFSRQEDRHLMAAEIPNIKPDILIIESTYGTHIHEKREEREARFCNTVHDIVNRGGRGLIPVFALGRAQELLLILDEYWQNHPELHDIPIYYASSLAKKCMAVYQTYVNAMNDKIRKQININNPFVFKHISNLKSMDHFDDIGPSVVMASPGMMQSGLSRELFESWCTDKRNGVIIAGYCVEGTLAKHIMSEPEEITTMSGQKLPLKMSVDYISFSAHTDYQQTSEFIRALKPPHVILVHGEQNEMARLKAALIREYEDNDEVHIEVHNPRNTEAVTLNFRGEKLAKVMGFLADKKPEQGQRVSGILVKRNFNYHILSPCDLSNYTDLAMSTVKQTQAIPYTGPFNLLCYQLQKLTGDVEELEIQEKPALKVFKNITVIQEPGMVVLEWLANPSNDMYADTVTTVILEVQSNPKIRKGAVQKVSKKLEMHVYSKRLEIMLQDIFGEDCVSVKDDSILSVTVDGKTANLNLETRTVECEEGSEDDESLREMVELAAQRLYEALTPVH
As to B1, the binding entry in the test with GST-PAPα [1] is “no binding”; in test [2], “binds”.

B2: hFIP1 (protein, UniProt Q6UN15 1-594)
chain: MSAGEVERLVSELSGGTGGDEEEEWLYGGPWDVHVHSDLAKDLDENEVERPEEENASANPPSGIEDETAENGVPKPKVTETEDDSDSDSDDDEDDVHVTIGDIKTGAPQYGSYGTAPVNLNIKTGGRVYGTTGTKVKGVDLDAPGSINGVPLLEVDLDSFEDKPWRKPGADLSDYFNYGFNEDTWKAYCEKQKRIRMGLEVIPVTSTTNKITAEDCTMEVTPGAEIQDGRFNLFKVQQGRTGNSEKETALPSTKAEFTSPPSLFKTGLPPSRNSTSSQSQTSTASRKANSSVGKWQDRYGRAESPDLRRLPGAIDVIGQTITISRVEGRRRANENSNIQVLSERSATEVDNNFSKPPPFFPPGAPPTHLPPPPFLPPPPTVSTAPPLIPPPGFPPPPGAPPPSLIPTIESGHSSGYDSRSARAFPYGNVAFPHLPGSAPSWPSLVDTSKQWDYYARREKDRDRERDRDRERDRDRDRERERTRERERERDHSPTPSVFNSDEERYRYREYAERGYERHRASREKEERHRERRHREKEETRHKSSRSNSRRRHESEEGDSHRRHKHKKSKRSKEGKEAGSEPAPEQESTEATPAE
In the case of B2, the binding result is reported as “binds” with GST-PAPα [1], “binds” with GST-PAPα [3] and “no binding” in test [4].

B3: CPSF-160 (cleavage and polyadenylation specificity factor 160 kilodalton subunit) (protein, UniProt Q10570 1-1443)
chain: MYAVYKQAHPPTGLEFSMYCNFFNNSERNLVVAGTSQLYVYRLNRDAEALTKNDRSTEGKAHREKLELAASFSFFGNVMSMASVQLAGAKRDALLLSFKDAKLSVVEYDPGTHDLKTLSLHYFEEPELRDGFVQNVHTPRVRVDPDGRCAAMLVYGTRLVVLPFRRESLAEEHEGLVGEGQRSSFLPSYIIDVRALDEKLLNIIDLQFLHGYYEPTLLILFEPNQTWPGRVAVRQDTCSIVAISLNITQKVHPVIWSLTSLPFDCTQALAVPKPIGGVVVFAVNSLLYLNQSVPPYGVALNSLTTGTTAFPLRTQEGVRITLDCAQATFISYDKMVISLKGGEIYVLTLITDGMRSVRAFHFDKAAASVLTTSMVTMEPGYLFLGSRLGNSLLLKYTEKLQEPPASAVREAADKEEPPSKKKRVDATAGWSAAGKSVPQDEVDEIEVYGSEAQSGTQLATYSFEVCDSILNIGPCANAAVGEPAFLSEEFQNSPEPDLEIVVCSGHGKNGALSVLQKSIRPQVVTTFELPGCYDMWTVIAPVRKEEEDNPKGEGTEQEPSTTPEADDDGRRHGFLILSREDSTMILQTGQEIMELDTSGFATQGPTVFAGNIGDNRYIVQVSPLGIRLLEGVNQLHFIPVDLGAPIVQCAVADPYVVIMSAEGHVTMFLLKSDSYGGRHHRLALHKPPLHHQSKVITLCLYRDLSGMFTTESRLGGARDELGGRSGPEAEGLGSETSPTVDDEEEMLYGDSGSLFSPSKEEARRSSQPPADRDPAPFRAEPTHWCLLVRENGTMEIYQLPDWRLVFLVKNFPVGQRVLVDSSFGQPTTQGEARREEATRQGELPLVKEVLLVALGSRQSRPYLLVHVDQELLIYEAFPHDSQLGQGNLKVRFKKVPHNINFREKKPKPSKKKAEGGGAEEGAGARGRVARFRYFEDIYGYSGVFICGPSPHWLLVTGRGALRLHPMAIDGPVDSFAPFHNVNCPRGFLYFNRQGELRISVLPAYLSYDAPWPVRKIPLRCTAHYVAYHVESKVYAVATSTNTPCARIPRMTGEEKEFETIERDERYIHPQQEAFSIQLISPVSWEAIPNARIELQEWEHVTCMKTVSLRSEETVSGLKGYVAAGTCLMQGEEVTCRGRILIMDVIEVVPEPGQPLTKNKFKVLYEKEQKGPVTALCHCNGHLVSAIGQKIFLWSLRASELTGMAFIDTQLYIHQMISVKNFILAADVMKSISLLRYQEESKTLSLVSRDAKPLEVYSVDFMVDNAQLGFLVSDRDRNLMVYMYLPEAKESFGGMRLLRRADFHVGAHVNTFWRTPCRGATEGLSKKSVVWENKHITWFATLDGGIGLLLPMQEKTYRRLLMLQNALTTMLPHHAGLNPRAFRMLHVDRRTLQNAVRNVLDGELLNRYLYLSTMERSELAKKIGTTPDIILDDLLETDRVTAHF
In the case of B3, the binding entry (with GST-PAPα [1]; in test [2]; in the test with GST-PAPα [3]; in test [4]) was “binds” throughout.

These data come from publication PMC4737136.
